Data reported in PubChem BioAssay AID504332 (National Center for Advancing Translational Sciences (NCATS), 2011).
Out of some 350,000 compounds screened, about 31,000 (8.9%) were called active. The inconclusive results got no clear call from the source; some entries with a clear call stand among them for comparison. Calls come from the whole dose curve; as a rule, active = well fitted inhibition curve with a large enough effect; inconclusive = small, poorly fitted or top-dose-only effect; inactive = no such curve, though single readings can be large or run the other way. Potencies beside an inconclusive call are fits to weak or partial responses and may not hold up.
% is set by controls: 0 for no effect and ±100 for the full control effect; potency is the fitted concentration of half-maximal effect; tags give direction and shape of the fitted curve.
Note: nearly all actives have a fitted effect of over 75% in size.

What follows are compounds tested against Histone-lysine N-methyltransferase EHMT2 (Homo sapiens) (UniProt Q96KQ7) (assay: qHTS Assay for Inhibitors of Histone Lysine Methyltransferase G9a). Conditions: G9a H3K9 monomethylation, AlphaScreen, 2 h; activity, negative = inhibition: at 59 µM (top of the series) unless noted.
Chain of UniProt Q96KQ7 (Q96KQ7 whole entry, looked up): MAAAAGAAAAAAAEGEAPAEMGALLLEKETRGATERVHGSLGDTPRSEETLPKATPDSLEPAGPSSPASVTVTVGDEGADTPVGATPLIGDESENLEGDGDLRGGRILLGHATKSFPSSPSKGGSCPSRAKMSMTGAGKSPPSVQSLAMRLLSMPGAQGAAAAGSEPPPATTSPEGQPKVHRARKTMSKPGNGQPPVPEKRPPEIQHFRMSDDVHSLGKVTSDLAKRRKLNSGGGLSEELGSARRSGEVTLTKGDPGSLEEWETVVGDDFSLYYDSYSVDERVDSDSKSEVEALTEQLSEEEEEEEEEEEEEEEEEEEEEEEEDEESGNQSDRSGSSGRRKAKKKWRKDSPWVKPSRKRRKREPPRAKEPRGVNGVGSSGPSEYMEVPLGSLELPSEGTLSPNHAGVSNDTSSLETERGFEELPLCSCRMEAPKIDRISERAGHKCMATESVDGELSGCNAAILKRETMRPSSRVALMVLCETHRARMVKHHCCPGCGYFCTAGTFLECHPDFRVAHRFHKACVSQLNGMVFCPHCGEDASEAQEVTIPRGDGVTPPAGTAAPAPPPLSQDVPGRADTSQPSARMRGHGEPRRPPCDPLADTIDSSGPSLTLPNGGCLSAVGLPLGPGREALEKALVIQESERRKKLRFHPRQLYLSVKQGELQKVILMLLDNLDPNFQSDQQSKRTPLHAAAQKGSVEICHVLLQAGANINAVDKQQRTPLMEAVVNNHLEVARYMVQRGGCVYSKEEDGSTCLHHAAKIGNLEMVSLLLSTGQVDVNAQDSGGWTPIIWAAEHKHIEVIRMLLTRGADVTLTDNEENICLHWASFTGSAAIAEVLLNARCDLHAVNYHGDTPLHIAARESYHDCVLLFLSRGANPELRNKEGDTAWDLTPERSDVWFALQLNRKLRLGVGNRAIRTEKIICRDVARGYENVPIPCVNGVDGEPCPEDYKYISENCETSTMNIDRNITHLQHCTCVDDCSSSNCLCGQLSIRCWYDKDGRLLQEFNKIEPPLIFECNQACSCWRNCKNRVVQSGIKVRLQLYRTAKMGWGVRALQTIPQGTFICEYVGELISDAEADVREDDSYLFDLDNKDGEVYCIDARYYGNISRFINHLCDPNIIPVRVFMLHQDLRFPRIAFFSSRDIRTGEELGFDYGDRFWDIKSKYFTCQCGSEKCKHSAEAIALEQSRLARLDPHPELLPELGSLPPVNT
In short: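 Chemiluminescent proximity detection of H3K9 monomethylation, read after 10 min bead incubation in the dark. Reaction: 20 nM G9a, 500 nM biotin-H3K9 peptide, 20 uM SAM cofactor, 2 h, room temperature, following 15 min enzyme-compound preincubation.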
With `C1CCC2(CC1)C1=C(CCCC1)Nc1nnnn12` the Potency was inconclusive: 35.5 µM [inhibitor, single point]. In the case of `CCn1nc(C(=O)OCC(=O)Nc2nc(-c3ccc(OC)cc3)cs2)c2ccccc2c1=O`, the Potency is reported as inconclusive: 1.26 µM [inhibitor, partial curve, poor fit]. With `CCOc1ccc(NC(=O)CCCN2C(=O)C(c3ccccc3)Oc3cccnc32)cc1` (configuration not stated) the Potency was “inactive”. `COc1ccc(Cn2c(=S)[nH]c3cc(C(=O)N4CCN(c5ccccc5)CC4)ccc3c2=O)cc1` was tested, and the Potency was “inactive”. `O=C1C=C(c2cccc(CO)c2)C[C@@H](c2ccc(F)cc2)C1` was tested, and the activity, negative = inhibition was inactive: -2.79% [at 0.501 µM]. `Cc1ccc(Nc2ncc(C(=O)NCCCN3CCN(C)CC3)c3ccccc23)cc1Cl` was tested, and the Potency was inconclusive: 10 µM [inhibitor, full curve]. `CCOc1ccc(N2C(=O)c3cccnc3C2Nc2ccc(C)c(C)c2)cc1` (configuration not stated) was tested, and the Potency was active: 89.1 µM. For `O=C1C2CC=C(Cl)CC2C(=O)N1CN(Cc1ccco1)CN1C(=O)C2CC=C(Cl)CC2C1=O` (configuration not stated), the Potency was active: 50.1 µM. For `O=C(/C=C/c1ccco1)N1CCC(Cc2ccccc2)CC1`, the Potency was active: 31.6 µM. In the case of `CCOc1ccc(N2C(=O)/C(=C/c3ccc(C)o3)N(C)C2=S)cc1`, the Potency is reported as active: 3.55 µM. `O=C(CNCc1ccc(Cl)cc1)Nc1ccc2c(c1)OCCO2` was tested, and the Potency was active: 11.2 µM. For `CC(C)Oc1ccc(CCc2n[nH]c(=S)n2Cc2ccccc2)cc1`, the Potency was inconclusive: 2.51 µM [inhibitor, partial curve, poor fit]. For `O=C(O)/C=C\C(=O)Nc1ccccc1C(=O)NCc1ccccc1`, the Potency was inconclusive: 17.8 µM [inhibitor, single point]. In the case of `COc1ccc(C)cc1N(C)C(=O)c1sc2nc3n(c(=O)c2c1C)CCCCC3`, the Potency is reported as active: 10 µM. `C/C(=N\NC(=O)c1cccc(S(=O)(=O)N2CCCC2)c1)c1ccc(OCC(=O)N(C)C)cc1` was tested, and the Potency was “inactive”. For `O=C(O)CC1SC(=O)N(Cc2ccccc2)C1=O` (configuration not stated), the Potency was inconclusive: 89.1 µM [inhibitor, partial curve, poor fit]. With `O=c1c2cccnc2n(-c2ccccc2)n1Cc1ccc(Cl)cc1` the Potency was “inactive”. In the case of `CCCCN(C)CCNC(=O)Cn1ncc2c3ccccc3n(CCC)c2c1=O`, the Potency is reported as “inactive”. In the case of `NCCCCNS(=O)(=O)c1cccc2c(Cl)cccc12`, the Potency is reported as inconclusive: 56.2 µM [inhibitor, partial curve]. For `COc1cccc(N=Nc2c(=O)[nH]n3c(=O)cc(C)[nH]c23)c1`, the Potency was inconclusive: 2.82 µM [inhibitor, partial curve, poor fit]. With `Cc1cc2c(ncn2Cc2ccccc2)c(N)c1C` the Potency was inconclusive: 79.4 µM [inhibitor, partial curve, poor fit]. In the case of `CCCc1nc2c(s1)CCc1onc(-c3ccc(Cl)cc3)c1-2`, the activity, negative = inhibition is reported as inactive: -4.85% [at 2.33 µM]. For `Cc1ccc(C(=O)c2oc3ccccc3c2NC(=O)c2nc(S(C)(=O)=O)ncc2Cl)cc1F`, the Potency was “inactive”. In the case of `COc1ccc(NC(=O)CCN2CCN(S(=O)(=O)c3ccc(C(C)C)cc3)CC2)cc1`, the activity, negative = inhibition is reported as inactive: 24.3% [at 12.7 µM]. For `CC(C)CN1CCC2(CC1)CCN(C(=O)c1cnccn1)CC2`, the Potency was inconclusive: 3.16 µM [inhibitor, single point]. `O=C(O)c1ccccc1/C=N/NC(=O)C1CCCC1` was tested, and the Potency was inconclusive: 79.4 µM [inhibitor, single point]. In the case of `CCOCCCNC(=S)NCCCNc1nc2ccc(C)cc2cc1C#N`, the Potency is reported as inconclusive: 39.8 µM [inhibitor, single point]. In the case of `Nc1ncnc2c1c(-c1ccc(Oc3ccccc3)cc1)cn2C1CCCC1`, the Potency is reported as active: 14.1 µM. For `OCCN1CCOCCN(CCO)CCOCC1`, the Potency was inconclusive: 79.4 µM [inhibitor, single point]. For `COc1ccccc1C(=O)NCCC(=O)N1CCN(c2ccccc2O)CC1`, the Potency was inconclusive: 56.2 µM [inhibitor, partial curve]. With `CC(Oc1ccc(-c2ccccc2)c(F)c1)c1ccn(S(=O)(=O)c2ccc(Br)cc2)n1` (configuration not stated) the Potency was “inactive”. `CCOc1ccc(CNC(=O)C(=O)c2cn(CC(=O)N3CCOCC3)c3ccccc23)cc1OC` was tested, and the Potency was “inactive”. For `CC(C)C1=C2OC(N)=C(C#N)C(C#N)=C2C(C)CC1` (configuration not stated), the activity, negative = inhibition was inconclusive: -65.8% [inhibitor]. For `CCCCC1CCc2[nH]nc(C(=O)O)c2C1` (configuration not stated), the activity, negative = inhibition was inactive: 15.7% [at 2.33 µM]. `COc1ccccc1NC(=O)N(Cc1ccco1)C1CCN(C(C)=O)CC1` was tested, and the Potency was “inactive”. With `COc1ccc(C)cc1S(=O)(=O)N(CC(=O)Nc1ccc2c(c1)OCCO2)Cc1ccccc1` the Potency was inconclusive: 79.4 µM [inhibitor, single point]. For `COc1cc2c(cc1OC)C1O[C@](c3ccsc3)(C2)Oc2cc(-c3ccccc3)oc(=O)c21`, the Potency was inconclusive: 1.41 µM [inhibitor, single point]. `Cc1cccc(C)c1NS(=O)(=O)c1ccc(OCCNS(C)(=O)=O)cc1` was tested, and the Potency was inconclusive: 39.8 µM [inhibitor, partial curve, poor fit]. In the case of `O=C(c1nc(-c2ccc(Cl)cc2)n2c1CCCCC2)N1CCN(c2ccc(F)cc2)CC1`, the Potency is reported as inconclusive: 28.2 µM [inhibitor, single point]. In the case of `O=C(NC1c2ccccc2-c2ccccc21)c1ccccc1`, the Potency is reported as “inactive”. For `CCCOc1ccc(OC(=O)c2sc3ncn(Cc4cccc(F)c4)c(=O)c3c2C)cc1`, the Potency was “inactive”. In the case of `CCN(CC)c1ccc(NC(=O)CSc2nc3ccccc3c(=O)n2-c2cc(S(=O)(=O)N(C)C)ccc2C)cc1`, the Potency is reported as inconclusive: 2.51 µM [inhibitor, full curve, poor fit]. `CC(C)Cc1nc(SCC(=O)NCc2ccccc2)n[nH]1` was tested, and the Potency was inconclusive: 1.41 µM [inhibitor, partial curve, poor fit]. In the case of `Cc1ccc(-n2c(SCC(=O)N3CC(=O)Nc4ccccc43)nc3ccccc3c2=O)cc1`, the Potency is reported as inconclusive: 70.8 µM [inhibitor, single point]. In the case of `O=C1NC(=S)N/C1=C/c1cccn1-c1ccc([N+](=O)[O-])cc1`, the Potency is reported as inconclusive: 56.2 µM [inhibitor, partial curve, poor fit]. With `O=C(COc1ccc(F)cc1)NCC1(N2CCCCC2)CCCCC1` the Potency was inconclusive: 28.2 µM [inhibitor, partial curve, poor fit]. With `S=c1[nH]c2ccccc2n2cccc12` the Potency was “inactive”. In the case of `COc1ccccc1Nc1nc(-c2cccs2)cs1`, the Potency is reported as inconclusive: 22.4 µM [inhibitor, single point]. With `NC(=O)C1CCN(C(=O)CSc2nc3ccccc3o2)CC1` the Potency was inconclusive: 79.4 µM [inhibitor, partial curve, poor fit]. `Cc1cccc(NC(=S)N/N=C/C(C)c2ccccc2)c1C` (configuration not stated) was tested, and the Potency was inconclusive: 17.8 µM [inhibitor, full curve, poor fit]. With `CCc1nnc(NC(=O)c2cccc(S(=O)(=O)N(C)c3ccccc3)c2)s1` the Potency was inconclusive: 8.91 µM [inhibitor, full curve, poor fit]. For `O=C1CC(N2CCN(S(=O)(=O)c3ccc([N+](=O)[O-])cc3)CC2)C(=O)N1c1ccccc1F` (configuration not stated), the activity, negative = inhibition was inactive: 2.51% [at 12.7 µM]. With `CC(C)OC(=O)c1nn2c(C(F)(F)F)cc(-c3ccc(Br)o3)nc2c1Br` the Potency was active: 35.5 µM. For `CN1CCN(C(=O)c2cc3cc(F)ccc3[nH]2)CC1`, the Potency was inconclusive: 70.8 µM [inhibitor, single point]. `CCCCNC(=O)CSc1nc2ccc(N3CCOCC3)cc2c(=O)n1CCc1ccccc1` was tested, and the Potency was inconclusive: 25.1 µM [inhibitor, single point]. For `Cc1cc(C(=O)CSc2nnnn2C)c(C)n1-c1ccc2c(c1)OCCO2`, the activity, negative = inhibition was inconclusive: -60.1% [inhibitor]. In the case of `Nc1nnc(SCCCC(=O)c2ccc(F)cc2)s1`, the Potency is reported as inconclusive: 89.1 µM [inhibitor, single point]. In the case of `CC(C)c1ccc(-n2cnn(-c3ncccc3[N+](=O)[O-])c2=O)cc1`, the Potency is reported as inconclusive: 25.1 µM [inhibitor, partial curve]. With `CCOc1ccc(NC(=O)Cn2nnc(C(=O)NCCc3ccc(OC)c(OC)c3)c2N)cc1` the Potency was inconclusive: 79.4 µM [inhibitor, partial curve, poor fit]. In the case of `Cc1ccc(Cl)cc1N1CCN(S(C)(=O)=O)CC1`, the Potency is reported as “inactive”. In the case of `COC(=O)C(NNc1ccccc1C)(NC(=O)c1ccc(F)cc1)C(F)(F)F` (configuration not stated), the Potency is reported as active: 3.16 µM. `COc1ccc(NC(=O)Cn2c(=O)n(Cc3ccco3)c(=O)c3sc4ccccc4c32)cc1OC` was tested, and the Potency was “inactive”. `O=C(COC(=O)C(O)c1ccccc1)c1ccc2c(c1)OCCO2` (configuration not stated) was tested, and the Potency was “inactive”. For `CCC(C)NCCOCCOc1ccc(F)cc1` (configuration not stated), the Potency was inconclusive: 39.8 µM [inhibitor, single point]. `O=C(Cn1c(=O)n(Cc2ccco2)c(=O)c2ccccc21)Nc1cccc(F)c1` was tested, and the Potency was “inactive”. For `Cc1ccccc1Nc1nc(N)nc(COC(=O)c2cccc(S(=O)(=O)N(C)c3ccccc3)c2)n1`, the Potency was “inactive”. `COc1ccc(-n2nnc3c(SCc4ccccc4)ncnc32)cc1` was tested, and the Potency was “inactive”. In the case of `O=C(O)C1=C(Nc2ccccc2)OCC1=O`, the Potency is reported as active: 39.8 µM. With `O=C(O)c1cc(NS(=O)(=O)c2cccs2)cc(NS(=O)(=O)c2cccs2)c1` the Potency was “inactive”. `O=C(Nc1nnc(S(=O)(=O)N2CCCc3ccccc32)s1)c1ccc(Cl)cc1` was tested, and the Potency was inconclusive: 3.55 µM [inhibitor, partial curve, poor fit]. In the case of `N=c1n(CCN2CCOCC2)c2ccccc2n1Cc1ccccc1Br`, the Potency is reported as inconclusive: 50.1 µM [inhibitor, partial curve]. With `COc1ccccc1N1CCN(S(=O)(=O)c2ccc(-c3coc(C)n3)cc2)CC1` the Potency was inconclusive: 39.8 µM [inhibitor, partial curve, poor fit].
